Some of the results follow. At the low end of the ranking, values are background and their order means little.

This note sets out measurements from PMC6212790.

This assay addresses T1, GST-Rok-C97-191 (UniProt O34857).
T1 sequence: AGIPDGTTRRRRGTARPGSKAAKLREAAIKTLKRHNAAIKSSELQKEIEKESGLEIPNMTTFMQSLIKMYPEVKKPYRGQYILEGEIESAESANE
The assay can be described thus: protein binding microarray.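 Further: rank score from −0.5 (least bound) to 0.5 (best bound).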 The settings on record: Rok is a gene silencer of Bacillus subtilis; high values mean tight binding; most listed sequences are background and not binding sites; double strand, one strand shown.
CAGATGAG gave a binding signal of -0.23 E-score.

As for CGATCGCG, the binding signal is 0.0105 E-score.

For GAGGCAAC, the binding signal is -0.0906 E-score.

For the sequence CGCCGCGC, the binding signal is -0.215 E-score. Regarding CGGAGAGC, the binding signal is -0.239 E-score. ATAAAAGG returned a binding signal of 0.077 E-score. For the sequence GCGACGTA, the binding signal was 0.0763 E-score. ACTGGAGG returned a binding signal of -0.26 E-score.

Take AGCTGTAT: the binding signal worked out at 0.164 E-score. In turn, CGTGAAGA returned a binding signal of -0.0889 E-score. Take GTCGTTTA: the binding signal amounted to 0.12 E-score.

The sequence GCCGTAGC returned a binding signal of -0.0991 E-score. Next, ATCGCCGG: -0.0173 E-score; CCGCAACA: 0.0431 E-score. TATCTCCA showed a binding signal of 0.177 E-score. To CCAATCCC belongs -0.245 E-score; to CATGGGGC, -0.233 E-score; to TGACGTCA, 0.00314 E-score. Sequence GAATAGGA returned a binding signal of 0.0339 E-score.

As to ACGAAGGA, the binding signal is 0.088 E-score. ACTAGCGC displayed a binding signal of 0.131 E-score. Consider ACTATTTG, for which the binding signal is 0.22 E-score.

In the case of TCTTTGCA, the binding signal came out at 0.123 E-score. The sequence CTGGAAAG yielded a binding signal of -0.0873 E-score. Next, CCCCGAGA: -0.324 E-score; GCTTCCGA: -0.0867 E-score; GTTAATTA: 0.19 E-score. As to GATGCTGC, the binding signal was determined as 0.0556 E-score. Next, ATTTACCC: 0.222 E-score. Sequence ACGACACA gave a binding signal of -0.0337 E-score. Turning to ACAAAACG, the binding signal was -0.11 E-score. For AAAGTATT, the binding signal was 0.191 E-score. Sequence CTCCGCAC had a binding signal of 0.0348 E-score. GTATCCTA yielded a binding signal of 0.14 E-score.

As to ACTCCCCT, the binding signal is -0.344 E-score.

For ACCAGGAC, the binding signal was -0.0513 E-score.

In turn, AACGGGGA returned a binding signal of -0.0679 E-score.

On to ACCCGGTG, for which the binding signal is -0.277 E-score.

ACTCGGTC had a binding signal of -0.0494 E-score. Next, GACATGAA: 0.133 E-score; AACTTTTC: 0.037 E-score. ACAAAGAC: the binding signal came to 0.0962 E-score. Consider CGTGCAGA, for which the binding signal was -0.162 E-score. ACAACAGG returned a binding signal of 0.0735 E-score. Sequence CCACAAAG showed a binding signal of -0.13 E-score.

With AAACGCTT, the binding signal is -0.107 E-score. Consider CACGTGGA, for which the binding signal is -0.208 E-score. In the case of CGAGATGA, the binding signal is -0.0477 E-score. On to AACTTATG, for which the binding signal turned out to be 0.13 E-score. Turning to GACACTTA, the binding signal was determined as 0.00132 E-score. In turn, CGCGCACA returned a binding signal of 0.0288 E-score. In turn, AGCCACAG came in with a binding signal of -0.278 E-score. The sequence GCCGTGCA returned a binding signal of -0.0765 E-score. Consider CTTTGTCA, for which the binding signal was -0.133 E-score. CAGGTCCC registered a binding signal of -0.219 E-score.

Regarding AGGACCAC, the binding signal is -0.0581 E-score. Consider AGTCCTTA, for which the binding signal was determined as 0.00187 E-score. To GGCTCCCA belongs -0.206 E-score; to GGTAAGAA, 0.177 E-score. Next, CGAACATA: 0.0707 E-score; ACTCATAC: 0.204 E-score; ATGCTTCA: -0.123 E-score. Consider AACGGAAG, for which the binding signal is -0.209 E-score. In turn, AGAAAAGG displayed a binding signal of -0.204 E-score.

The sequence GCTGAAGC had a binding signal of -0.221 E-score. ACTGCTGG displayed a binding signal of -0.148 E-score. To GGTGGACA belongs -0.307 E-score; to TGCCCAAA, 0.00809 E-score; to CACCTAGG, -0.155 E-score. The sequence GCGTACAC had a binding signal of 0.138 E-score. For the sequence GCTTACCC, the binding signal is -0.0373 E-score. Sequence ATAGTCAT returned a binding signal of -0.0581 E-score. GGCCCGAC came in with a binding signal of -0.259 E-score.

Take GACCGTAA: the binding signal was 0.112 E-score. Take CCCGTCGG: the binding signal was -0.173 E-score.

Regarding ACACGTAG, the binding signal is -0.0318 E-score. The sequence ACATCTTG returned a binding signal of -0.0462 E-score. To CCATTGAA belongs -0.106 E-score; to GAAAGCAC, -0.00694 E-score; to AAATACCT, 0.271 E-score.

ATCTGACA yielded a binding signal of -0.026 E-score. Take ATTCCCCG: the binding signal was -0.136 E-score. The sequence TCGCCTAA gave a binding signal of 0.0852 E-score. For AGTTCCTA, the binding signal turned out to be 0.15 E-score. For the sequence GGAGTAAC, the binding signal is -0.109 E-score. To AAGACATA belongs 0.00214 E-score; to CGGAGCAA, 0.0518 E-score; to AAGCGATC, -0.0616 E-score.

In the case of CGAGTACG, the binding signal stood at 0.0532 E-score.

ATCAAAAT: the binding signal turned out to be 0.231 E-score. Next, CCCCTTGA: -0.25 E-score. In turn, CTACGTTA yielded a binding signal of 0.0846 E-score. As for AAGATTCC, the binding signal was -0.0554 E-score. Next, ATGCAAAC: -0.0558 E-score; CCAAGACG: -0.139 E-score. Regarding ACAACAGA, the binding signal was -0.109 E-score.

The sequence ATAGTACC had a binding signal of 0.254 E-score. Sequence GCCTTACA gave a binding signal of -0.0752 E-score. Next, CGTTTAGA: -0.129 E-score; AATGAGCC: -0.0629 E-score.

Sequence CCTCTACA yielded a binding signal of 0.104 E-score. Regarding ACTATACT, the binding signal turned out to be 0.0926 E-score.

The sequence CACGAGTA registered a binding signal of -0.0408 E-score. For CTGAGCTC, the binding signal was -0.225 E-score. GAATTCTA had a binding signal of 0.363 E-score. For the sequence GTGATGGA, the binding signal is -0.179 E-score. For the sequence AACTACAC, the binding signal stood at 0.33 E-score. ACGTCTAA: the binding signal was -0.00625 E-score. For GCACCAAC, the binding signal was -0.132 E-score. Consider CACCTGGG, for which the binding signal is -0.262 E-score. Consider GCGAGGTA, for which the binding signal came out at 0.108 E-score. As to CGCGGTGA, the binding signal was -0.228 E-score. In turn, CCCGGTTC displayed a binding signal of -0.31 E-score. As to AACTTAGC, the binding signal was 0.193 E-score. On to ACTTGCTC, for which the binding signal is -0.054 E-score. Consider CCCGACAC, for which the binding signal was -0.163 E-score. The sequence TCAACCCA registered a binding signal of -0.185 E-score. Take CATCTCTA: the binding signal worked out at 0.0692 E-score. To GTTCGTCA belongs 0.0262 E-score. In the case of CCATTTAC, the binding signal came to 0.0206 E-score. Consider ACAATCCC, for which the binding signal came to 0.162 E-score. AGAACAAC came in with a binding signal of -0.114 E-score. CAGCCATC yielded a binding signal of -0.13 E-score. With GTTTTTAA, the binding signal was 0.0501 E-score. Next, ACATTGCT: 0.138 E-score; ATGCCCTC: -0.36 E-score. To AATCGCCT belongs -0.178 E-score.

As to AAATGGAC, the binding signal was -0.102 E-score. In turn, GGCGTGGA showed a binding signal of -0.266 E-score.

AGCAATTG displayed a binding signal of 0.332 E-score.

Consider GCACCCAA, for which the binding signal is -0.0642 E-score. Next, ATGTCACC: 0.17 E-score; ACGAAGGG: -0.239 E-score; AGCATGTG: -0.0216 E-score. Regarding TACCTCCA, the binding signal came out at 0.129 E-score. Sequence GTAGCTCA displayed a binding signal of -0.00637 E-score.

GTTGCTCA displayed a binding signal of 0.0269 E-score. For the sequence GAGCCTCA, the binding signal is -0.242 E-score. CATTGCGA gave a binding signal of 0.108 E-score. Sequence CTGCAATC registered a binding signal of -0.107 E-score. In turn, CACACCGG displayed a binding signal of -0.289 E-score.

AACCCAAA: the binding signal was -0.0379 E-score. Take CATCCGAC: the binding signal was -0.175 E-score. The sequence AACCAGCG returned a binding signal of -0.0612 E-score. The sequence AACCCGCG yielded a binding signal of -0.0978 E-score.

As for GGTATTAA, the binding signal was found to be 0.189 E-score. Next, CGTAGAAG: 0.0648 E-score; AGATATGC: 0.207 E-score. Take ACGTTCTA: the binding signal stood at 0.317 E-score. Next, CAGGTGGC: -0.127 E-score. The sequence CCTCCCGC registered a binding signal of -0.143 E-score. GCACATGC had a binding signal of -0.0509 E-score. Sequence GGACTACA gave a binding signal of 0.0796 E-score. Next, CCTTCGGC: -0.2 E-score. Take GTAGGACA: the binding signal was 0.0745 E-score.

As to ACGTGTCT, the binding signal was 0.00783 E-score. Consider TGAGCTCA, for which the binding signal is -0.21 E-score. As to CTGGATAA, the binding signal is -0.00344 E-score. To AAGGCCCT belongs -0.355 E-score; to ATGACTCA, -0.107 E-score; to GTGACTGA, -0.135 E-score.

ACTTAGCC displayed a binding signal of -0.029 E-score. The sequence AGGTTAAC came in with a binding signal of 0.0732 E-score.

On to CACTTAAA, for which the binding signal was -0.0399 E-score. To ACGCACAC belongs -0.0939 E-score; to CAAGCCGA, -0.061 E-score. On to AGCTGCGG, for which the binding signal was -0.136 E-score.

For the sequence GAATTTAA, the binding signal was 0.124 E-score. Take ATGAGAAA: the binding signal worked out at 0.117 E-score. In the case of GTTGGTCA, the binding signal was -0.0582 E-score. For the sequence CAATGGTA, the binding signal came to 0.269 E-score. As to ACAATATG, the binding signal came to 0.146 E-score.
